Results reported in a collection of fitness landscapes (doi:10.1016/j.celrep.2020.107928).
Over roughly 81,000 sequences, “one-hybrid fitness for binding parS DNA” has its median near -0.17; the highest 2% begin near 0.51. This is one part of the list.

B1: Caulobacter ParB omega fusion; a variant is named by its letters at X, in order, B8GW30 (parent)
chain: MESVVVGEPGMSEGRRGLGRGLSALLGEVDAAPAQAPGEQLGGSREAPIEILQRNPDQPRRTFREEDLEDLSNSIREKGVLQPILVRPSPDTAGEYQIVAGERAWRAAQRAGLKTVPIMVRELDDLAVLEIGIIENVQRADLNVLEEALSYKVLMEKFERTQENIAQTIGKSXSHVANXMRLLXLPDEVQSYLVSGELTAXHARAIAAAADPVALAKQIIEGGLSVRETEALARKAPNLSAGKSKGGRPPRVKDTDTQALESDLSSVLGLDVSIDHRGSTGTLTITYATLEQLDDLCNRLTRGI

Variants of: B1
Experiment: one-hybrid fitness for binding parS DNA (scaled: cognate 1, non-cognate 0); higher = stronger binding
Settings: with parS DNA site
How it was run: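 Fitness here means the log change in variant-to-wild-type read ratio between plasmids sequenced before and after selection. That scale was set so cognate equals 1 and non-cognate equals 0. The selection was a bacterial one-hybrid screen of Caulobacter ParB libraries, four specificity codons randomised, in E. coli USO carrying a HIS3 reporter with the site 19 bp from the promoter, grown 48 hours at 37°C on M9-minus-histidine with 0.1 mM IPTG and 5 mM 3-AT.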

Row | Variant | one-hybrid fitness for binding parS DNA
1 | SNKA | ≤ 0.2
2 | CTWP | ≤ 0.2
3 | RCTD | ≤ 0.2
4 | RRLA | 0.815
5 | QPNT | ≤ 0.2
6 | APHR | ≤ 0.2
7 | TQLS | ≤ 0.2
8 | AFPL | ≤ 0.2
9 | CRNG | ≤ 0.2
10 | YLQC | ≤ 0.2
11 | SQIR | ≤ 0.2
12 | KRWR | ≤ 0.2
13 | TKPG | ≤ 0.2
14 | QLFG | ≤ 0.2
15 | TTCH | ≤ 0.2
16 | LDSR | ≤ 0.2
17 | VEPS | ≤ 0.2
18 | NYHR | ≤ 0.2
19 | QHQA | ≤ 0.2
20 | HNQT | ≤ 0.2
21 | QEFR | ≤ 0.2
22 | AWLG | ≤ 0.2
23 | SRLE | ≤ 0.2
24 | PCKS | ≤ 0.2
25 | MQWT | ≤ 0.2

Row | Variant | one-hybrid fitness for binding parS DNA
26 | RMIL | ≤ 0.2
27 | NPPP | ≤ 0.2
28 | MLYG | ≤ 0.2
29 | WRYR | ≤ 0.2
30 | GNTR | ≤ 0.2
31 | NNNK | ≤ 0.2
32 | VDEN | ≤ 0.2
33 | ATLL | ≤ 0.2
34 | THYP | ≤ 0.2
35 | RPAR | ≤ 0.2
36 | RFLY | 0.432
37 | GRAH | ≤ 0.2
38 | PRSG | ≤ 0.2
39 | SPKI | ≤ 0.2
40 | HTRF | ≤ 0.2
41 | WWSD | ≤ 0.2
42 | GAPC | ≤ 0.2
43 | DGFC | ≤ 0.2
44 | QHYR | ≤ 0.2
45 | QNLN | ≤ 0.2
46 | AHQG | ≤ 0.2
47 | CIKG | ≤ 0.2
48 | RTYC | 0.982
49 | MPYS | ≤ 0.2
50 | HSIV | ≤ 0.2

Row | Variant | one-hybrid fitness for binding parS DNA
51 | NHHL | ≤ 0.2
52 | ALYL | ≤ 0.2
53 | PMPP | ≤ 0.2
54 | VGWY | ≤ 0.2
55 | QHSI | ≤ 0.2
56 | HHGS | ≤ 0.2
57 | PDNI | ≤ 0.2
58 | YHNS | ≤ 0.2
59 | TQTA | ≤ 0.2
60 | VNNY | ≤ 0.2
61 | LVMN | ≤ 0.2
62 | FDLD | ≤ 0.2
63 | WGDM | ≤ 0.2
64 | LCSR | ≤ 0.2
65 | GRRD | ≤ 0.2
66 | ALLP | ≤ 0.2
67 | LDKN | ≤ 0.2
68 | EPPG | ≤ 0.2
69 | NSNW | ≤ 0.2
70 | IMTT | ≤ 0.2
71 | MTPD | ≤ 0.2
72 | KIHS | ≤ 0.2
73 | RKYS | 0.857
74 | FTPG | ≤ 0.2
75 | KSST | ≤ 0.2

Row | Variant | one-hybrid fitness for binding parS DNA
76 | LDHE | ≤ 0.2
77 | YRRI | ≤ 0.2
78 | SAMY | ≤ 0.2
79 | SWRK | ≤ 0.2
80 | QPAH | ≤ 0.2
81 | YVIT | ≤ 0.2
82 | DSAA | ≤ 0.2
83 | KHVN | ≤ 0.2
84 | FYAE | ≤ 0.2
85 | FVCV | ≤ 0.2
86 | KPWC | ≤ 0.2
87 | PRQF | ≤ 0.2
88 | QVSL | ≤ 0.2
89 | GRYA | ≤ 0.2
90 | FRDT | ≤ 0.2
91 | FASG | ≤ 0.2
92 | RSPA | ≤ 0.2
93 | FRYR | ≤ 0.2
94 | SGSN | ≤ 0.2
95 | VQCR | ≤ 0.2
96 | MTIR | ≤ 0.2
97 | WRRH | ≤ 0.2
98 | VHTC | ≤ 0.2
